From US11618753B2 (priority 2018, dated 2023)
Counter-ions that a name gives are not always drawn.

test system: MLKL phosphorylation, HT29-L23 human colorectal adenocarcinoma cells; test: cells; details: read-out: pMLKL HCS Cell Assay (IC50, uM)

First: COc1ncc(-c2cc(C(F)(F)F)c3c(N)ncnn23)cc1C(=O)N[C@@H]1CN(C(CC(F)(F)F)c2ccccc2)C[C@@H]1F (single isomer, unassigned) [Example 446]
Second: COc1ncc(-c2cc(C(F)(F)F)c3c(N)ncnn23)cc1C(=O)NC1CN(C(C)CC(O)C(F)(F)F)C[C@@H]1F (stereo partly drawn) [Example 1386, 5-[4-amino-5-(trifluoromethyl)-pyrrolo[2,1-f][1,2,4]triazin-7-yl]-N-[(3R,4S)-4-fluoro-1-(5,5,5-trifluoro-4-hydroxy-pentan-2-yl)pyrrolidin-3-yl]-2-methoxypyridine-3-carbox-amide]
The IC50 of the first is 3.4-fold higher: 0.171 µM for the first, 0.05 µM for the second. The second is the more potent here.

Nc1ncnn2c(-c3ccc(Cl)c(C(=O)N[C@@H]4CN(C(=O)CC(O)(C(F)(F)F)C(F)(F)F)C[C@@H]4F)c3)cc(CN3CCC(F)(F)CC3)c12 [Example 1139] and CCC(O)(C(=O)N1C[C@H](F)[C@H](NC(=O)c2cc(-c3cc(CN4CCC(C(F)(F)F)CC4)c4c(N)ncnn34)ccc2C)C1)C(F)(F)F (stereo partly drawn) [Example 1653, 5-(4-amino-5-{[4-(trifluoromethyl)piperidin-1-yl]methyl}pyrrolo[2,1-f][1,2,4]triazin-7-yl)-N-[(3R,4S)-4-fluoro-1-[2-hydroxy-2-(trifluoromethyl)butanoyl]pyrrolidin-3-yl]-2-methylbenzamide] are within 1.5-fold of each other in IC50: 0.0012 µM for the first, 0.0011 µM for the second.

Compared with Nc1ncnn2c(-c3cc(C(=O)N[C@@H]4CN(C(=O)C5CC(F)(F)C5)C[C@@H]4F)c(F)cc3Cl)cc(C(F)(F)F)c12 [Example 524, 5-[4-amino-5-(trifluoromethyl)pyrolo[2,1-f][1,2,4]triazin-7-yl]-4-chloro-N-[(3R,4S)-1-(3,3-difluorocyclobutanecarbonyl)-4-fluoropyrrolidin-3-yl]-2-fluorobenzamide], Cc1cc(F)c(-c2cc(C(F)(F)F)c3c(N)ncnn23)cc1C(=O)N[C@@H]1CN(C(=O)C2CC(F)(F)C2)C[C@@H]1F [Example 67, 5-(4-amino-5-(trifluoromethyl)pyrrolo[2,1-f][1,2,4]triazin-7-yl)-N-((3R,4S)-1-(3,3-difluorocyclobutane-1-carbonyl)-4-fluoropyrrolidin-3-yl)-4-fluoro-2-methylbenzamide] is 23-fold lower in IC50: 0.118 µM for the first, 0.0052 µM for the second. The second is the more potent here.

First: Cc1cc(F)c(-c2cc(C(F)(F)F)c3c(N)ncnn23)cc1C(=O)N[C@@H]1CN(C(=O)c2ccc(Cl)cn2)C[C@@H]1F [Example 851, 5-[4-amino-5-(trifluoromethyl)pyrrolo[2,1-f][1,2,4]triazin-7-yl]-N-[(3R,4S)-1-(5-chloropyridine-2-carbonyl)-4-fluoropyrrolidin-3-yl]-4-fluoro-2-methylbenzamide]
Second: Cc1ccc(-c2cc(C(F)(F)F)c3c(N)ncnn23)cc1C(=O)N[C@@H]1CN(C(=O)c2cc(F)c(F)cc2Cl)C[C@@H]1F [Example 1025, 5-[4-amino-5-(trifluoromethyl)pyrrolo[2,1-f][1,2,4]triazin-7-yl]-N-[(3R,4S)-1-(2-chloro-4,5-difluorobenzoyl)-4-fluoropyrrolidin-3-yl]-2-methylbenzamide]
The IC50 of the first is 5.2-fold higher: 0.015 µM for the first, 0.0029 µM for the second.

Going from COc1ncc(-c2cc(C(F)(F)F)c3c(N)ncnn23)cc1C(=O)N[C@@H]1CN(CC(O)(c2nccs2)C(F)(F)F)C[C@@H]1F (stereo partly drawn) [Example 1828, 5-(4-amino-5-(trifluoromethyl)pyrrolo[2,1-f][1,2,4]triazin-7-yl)-N-((3R,4S)-4-fluoro-1-(3,3,3-trifluoro-2-hydroxy-2-(thiazol-2-yl)propyl)pyrrolidin-3-yl)-2-methoxynicotinamide] to COc1ncc(-c2cc(C(F)(F)F)c3c(N)ncnn23)cc1C(=O)N[C@@H]1CN(CC(O)CF)C[C@@H]1F (stereo partly drawn) [Example 1830, 5-(4-amino-5-(trifluoromethyl)pyrrolo[2,1-f][1,2,4]triazin-7-yl)-N-((3R,4S)-4-fluoro-1-(3-fluoro-2-hydroxypropyl)pyrrolidin-3-yl)-2-methoxynicotinamide], the IC50 rises from 0.027 µM to 0.234 µM (8.7-fold).

COc1ncc(-c2cc(CNC(C)=O)c3c(N)ncnn23)cc1C(=O)N[C@@H]1CN(C(=O)C2CC(F)(F)C2)C[C@@H]1F [Example 495, 5-[4-amino-5-(acetamidomethyl)pyrrolo[2,1-f][1,2,4]triazin-7-yl]-N-[(3R,4S)-1-(3,3-difluorocyclobutanecarbonyl)-4-fluoropyrrolidin-3-yl]-2-methoxypyridine-3-carboxamide] and COc1ncc(-c2cc(C(F)(F)F)c3c(N)ncnn23)cc1C(=O)N[C@@H]1CN(C(=O)N(C)C)C[C@@H]1F [Example 332, 5-[4-amino-5-(trifluoromethyl)pyrrolo[2,1-f][1,2,4]triazin-7-yl]-N-[(3R,4S)-1-(dimethylcarbamoyl)-4-fluoropyrrolidin-3-yl]-2-methoxypyridine-3-carboxamide] are within 1.5-fold of each other in IC50: 0.313 µM for the first, 0.361 µM for the second.

Going from COc1ncc(-c2cc(CNCCO)c3c(N)ncnn23)cc1C(=O)Nc1cnn(Cc2ccccc2)c1 [Example 58, 5-(4-amino-5-(((2-hydroxyethyl)amino)methyl)pyrrolo[2,1-f][1,2,4]triazin-7-yl)-N-(1-benzyl-1H-pyrazol-4-yl)-2-methoxynicotinamide] to COc1ncc(-c2cc(C(F)(F)F)c3c(N)ncnn23)cc1C(=O)Nc1cnn(CC(F)(F)F)c1 [Example 115, 5-[4-amino-5-(trifluoromethyl)pyrrolo[2,1-f][1,2,4]triazin-7-yl]-2-methoxy-N-[1-(2,2,2-trifluoroethyl)-1H-pyrazol-4-yl]pyridine-3-carboxamide], the IC50 rises from 0.0041 µM to 0.029 µM (7.1-fold). The first is the more potent here.

First: COc1c(F)cc(-c2cc(C(F)(F)F)c3c(N)ncnn23)cc1C(=O)N[C@@H]1CN(C(=O)c2ccccc2F)C[C@@H]1F [Example 681, 5-[4-amino-5-(trifluoromethyl)pyrrolo[2,1-f][1,2,4]triazin-7-yl]-3-fluoro-N-[(3R,4S)-4-fluoro-1-(2-fluorobenzoyl)pyrrolidin-3-yl]-2-methoxybenzamide]
Second: Cc1c(F)cc(-c2cc(C(F)(F)F)c3c(N)ncnn23)cc1C(=O)N[C@@H]1CN(C(=O)CC(C)C)C[C@@H]1F [Example 667, 5-[4-amino-5-(trifluoromethyl)pyrrolo[2,1-f][1,2,4]triazin-7-yl]-3-fluoro-N-[(3R,4S)-4-fluoro-1-(3-methylbutanoyl)pyrrolidin-3-yl]-2-methylbenzamide]
The IC50 of the first is 7.3-fold higher: 0.019 µM for the first, 0.0026 µM for the second. The second is the more potent here.

Going from C[C@@](O)(C(=O)N1C[C@H](F)[C@H](NC(=O)c2cc(-c3cc(C(F)(F)F)c4c(N)ncnn34)ccc2OCC(F)(F)F)C1)C(F)(F)F [Example 1066, 5-[4-amino-5-(trifluoromethyl)pyrrolo[2,1-f][1,2,4]triazin-7-yl]-N-[(3R,4S)-4-fluoro-1-[(2R)-3,3,3-trifluoro-2-hydroxy-2-methylpropanoyl]pyrrolidin-3-yl]-2-(2,2,2-trifluoroethoxy)benzamide] to CCC(O)(C(=O)N1C[C@H](F)[C@H](NC(=O)c2cc(-c3cc(C(F)(F)F)c4c(N)ncnn34)ccc2C)C1)C(F)(F)F (stereo partly drawn) [Example 984, 5-[4-amino-5-(trifluoromethyl)pyrrolo[2,1-f][1,2,4]triazin-7-yl]-N-[(3R,4S)-4-fluoro-1-[2-hydroxy-2-(trifluoromethyl)butanoyl]pyrrolidin-3-yl]-2-methylbenzamide], the IC50 falls from 0.016 µM to 0.0044 µM (3.6-fold). The second is the more potent here.

Compared with Nc1ncnn2c(-c3ccc(Cl)c(C(=O)N[C@@H]4CN(C(=O)C5CC(F)C5)C[C@@H]4F)c3)cc(CN3CCC(C(F)(F)F)CC3)c12 (stereo partly drawn) [Example 1151, 5-(4-amino-5-{[4-(trifluoromethyl)piperidin-1-yl]methyl}pyrrolo[2,1-f][1,2,4]triazin-7-yl)-2-chloro-N-[(3R,4S)-4-fluoro-1-(3-fluorocyclobutanecarbonyl)pyrrolidin-3-yl]benzamide], Nc1ncnn2c(-c3ccc(Cl)c(C(=O)N[C@@H]4CN(C(=O)c5cc(Cl)ccn5)C[C@@H]4F)c3)cc(C(F)(F)F)c12 [Example 962, 5-[4-amino-5-(trifluoromethyl)pyrrolo[2,1-f][1,2,4]triazin-7-yl]-2-chloro-N-[(3R,4S)-1-(4-chloropyridine-2-carbonyl)-4-fluoropyrrolidin-3-yl]benzamide] is 46-fold higher in IC50: 0.0028 µM for the first, 0.13 µM for the second.

First: Nc1ncnn2c(-c3cccc(C(=O)N[C@@H]4CN(C(=O)CC(F)(F)F)C[C@@H]4F)c3)cc(C(F)(F)F)c12 [Example 98, 3-[4-amino-5-(trifluoromethyl)pyrrolo[2,1-f][1,2,4]triazin-7-yl]-N-[(3R,4S)-4-fluoro-1-(3,3,3-trifluoropropanoyl)pyrrolidin-3-yl]benzamide]
Second: Cc1ccc(-c2cc(C(F)(F)F)c3c(N)ncnn23)c(F)c1C(=O)N[C@@H]1CN(C(=O)C(C)C(F)(F)F)C[C@@H]1F (stereo partly drawn) [Example 751, 3-[4-amino-5-(trifluoromethyl)pyrrolo[2,1-f][1,2,4]triazin-7-yl]-2-fluoro-N-[(3R,4S)-4-fluoro-1-(3,3,3-trifluoro-2-methylpropanoyl)pyrrolidin-3-yl]-6-methylbenzamide]
The IC50 of the first is 7.6-fold higher: 0.182 µM for the first, 0.024 µM for the second.

First: COc1ncc(-c2cc(C(F)(F)F)c3c(N)ncnn23)cc1C(=O)N[C@@H]1CN(S(=O)(=O)Cc2cccc([N+](=O)[O-])c2)C[C@@H]1F [Example 1495, 5-[4-amino-5-(trifluoromethyl)pyrrolo[2,1-f][1,2,4]triazin-7-yl]-N-[(3R,4S)-4-fluoro-1-[(3-nitrophenyl)methanesulfonyl]pyrrolidin-3-yl]-2-methoxypyridine-3-carboxamide]
Second: COc1ncc(-c2cc(C(F)(F)F)c3c(N)ncnn23)cc1C(=O)N[C@@H]1CN(C(=O)C2(O)CCC2)C[C@@H]1F [Example 316, 5-[4-amino-5-(trifluoromethyl)pyrrolo[2,1-f][1,2,4]triazin-7-yl]-N-[(3R,4S)-4-fluoro-1-(1-hydroxycyclobutanecarbonyl)pyrrolidin-3-yl]-2-methoxy-pyridine-3-carboxamide, TFA]
The IC50 of the first is 5.3-fold higher: 0.238 µM for the first, 0.045 µM for the second.

Compared with Cc1ncc(-c2cc(C(F)(F)F)c3c(N)ncnn23)cc1C(=O)N1CCC[C@@H](Cc2ccc(F)cc2)C1 [Example 172, 7-{5-[(3S)-3-[(4-fluorophenyl)methyl]piperidine-1-carbonyl]-6-methylpyridin-3-yl}-5-(trifluoromethyl)pyrrolo[2,1-f][1,2,4]triazin-4-amine], COc1ncc(-c2cc(C(F)(F)F)c3c(N)ncnn23)cc1C(=O)N[C@H]1CCN(C(=O)C2CCC(F)(F)C2)C1 (stereo partly drawn) [Example 267, 5-[4-amino-5-(trifluoromethyl)pyrrolo[2,1-f][1,2,4]triazin-7-yl]-N-[(3S)-1-(3,3-difluorocyclopentanecarbonyl)pyrrolidin-3-yl]-2-methoxypyridine-3-carboxamide] is 6.2-fold higher in IC50: 0.03 µM for the first, 0.185 µM for the second. The first is the more potent here.
